Our source for the enrichment ratio values is a collection of fitness landscapes (doi:10.1126/science.1257360).

First the molecules themselves.
B1: PhoQ; a variant is named by its letters at X, in order, P23837 (parent)
chain: MKKLLRLFFPLSLRVRFLLATAAVVLVLSLAYGMVALIGYSVSFDKTTFRLLRGESNLFYTLAKWENNKLHVELPENIDKQSPTMTLIYDENGQLLWAQRDVPWLMKMIQPDWLKSNGFHEIEADVNDTSLLLSGDHSIQQQLQEVREDDDDAEMTHSVAVNVYPATSRMPKLTIVVVDTIPVELKSSYMVWSWFIYVLSANLLLVIPLLWVAAWWSLRPIEALAKEVRELEEHNRELLNPATTRELTSLVRNLNRLLKSERERYDKYRTTLTDLTHSLKTPLXXLQXXLRSLRSEKMSVSDAEPVMLEQISRISQQIGYYLHRASMRGGTLLSRELHPVAPLLDNLTSALNKVYQRKGVNISLDISPEISFVGEQNDFVEVMGNVLDNACKYCLEFVEISARQTDEHLYIVVEDDGPGIPLSKREVIFDRGQRVDTLRPGQGVGLAVAREITEQYEGKIVAGESMLGGARMEVIFGRQHSAPKDE

The other results are listed elsewhere or left out. Where only a bound is given, the exact number is not on record here.

The variants in the assay derive from B1. Nature of the assay: enrichment ratio after two sorts for PhoP signalling (ratio (wild type AVST 3.29)); higher = more functional. The note with it: with PhoP (E. coli).
Consider DHYH, for which the enrichment ratio is at most 0.25.

As for EFRL, the enrichment ratio is at most 0.25. As for ENDS, the figure is at most 0.25; as for ANGW, 11.4.

As to VCGS, the enrichment ratio was at most 0.25. With TWVH, the enrichment ratio is at most 0.25. With WLYR, the enrichment ratio was at most 0.25. As for HKTH, the enrichment ratio is at most 0.25. VLGM: the enrichment ratio is at most 0.25.

Regarding KDSA, the enrichment ratio was at most 0.25. For INQE, the enrichment ratio was at most 0.25. AVPR: the enrichment ratio is at most 0.25. For the variant LWSH, the enrichment ratio was at most 0.25. With PWGA, the enrichment ratio was at most 0.25. Consider GYLF, for which the enrichment ratio is at most 0.25. With IVDL, the enrichment ratio is at most 0.25. Take MYWK: the enrichment ratio is at most 0.25. The figure for HIYK is at most 0.25; for QIGS it is 4.23; for YTQI it is at most 0.25. Take PKSM: the enrichment ratio is at most 0.25.

In the case of KMPT, the enrichment ratio was at most 0.25.

For the variant FVRM, the enrichment ratio was at most 0.25.

On to SPWG, for which the enrichment ratio was at most 0.25. Regarding IPEV, the enrichment ratio was at most 0.25. Turning to SKMG, the enrichment ratio was determined as 3.1.

Take FPGH: the enrichment ratio is at most 0.25.

Regarding LEIK, the enrichment ratio was at most 0.25.

Consider GKGS, for which the enrichment ratio is at most 0.25. In the case of FLTN, the enrichment ratio was at most 0.25. In the case of QSAI, the enrichment ratio was 7.95.

As for EPLP, the enrichment ratio was at most 0.25. Consider YLIE, for which the enrichment ratio was at most 0.25. Regarding NLVH, the enrichment ratio is at most 0.25. IKPM: the enrichment ratio is at most 0.25. As to LVTI, the enrichment ratio is at most 0.25. As for YVKH, the figure is at most 0.25; as for LHMV, at most 0.25. As for GLGK, the enrichment ratio was at most 0.25. For the variant SKMR, the enrichment ratio was at most 0.25. In the case of PQNN, the enrichment ratio was at most 0.25. As to MYSP, the enrichment ratio is at most 0.25. For FRNW, the enrichment ratio is at most 0.25. As for LYCN, the enrichment ratio is at most 0.25. Turning to HYWQ, the enrichment ratio was at most 0.25.

For the variant EMYS, the enrichment ratio is at most 0.25. With PYPT, the enrichment ratio was at most 0.25.

As to QQML, the enrichment ratio is at most 0.25. Turning to VVVR, the enrichment ratio is at most 0.25. On to HTEL, for which the enrichment ratio is at most 0.25. For DYFS, the enrichment ratio is at most 0.25. The figure for VWCS is at most 0.25. NWVV: the enrichment ratio was at most 0.25.

For LDRL, the enrichment ratio was at most 0.25.

For DDHV, the enrichment ratio is at most 0.25. Turning to QIPN, the enrichment ratio is at most 0.25. In the case of QEGP, the enrichment ratio is at most 0.25.

In the case of ALMM, the enrichment ratio came out at 4.65.

Turning to NWEI, the enrichment ratio was at most 0.25. Consider HMWT, for which the enrichment ratio is at most 0.25. Turning to GQVI, the enrichment ratio was at most 0.25. As for NMTK, the enrichment ratio is at most 0.25. Consider QHHN, for which the enrichment ratio was at most 0.25. As for RRNP, the enrichment ratio was at most 0.25. For the variant AGTL, the enrichment ratio is 11. The figure for KMKL is at most 0.25; for KKEG it is at most 0.25; for ALCG it is 4.5. Consider GYGR, for which the enrichment ratio is at most 0.25. For the variant NRGI, the enrichment ratio was at most 0.25. Take LAHN: the enrichment ratio was at most 0.25.

For DGSI, the enrichment ratio was at most 0.25. HTDD: the enrichment ratio is at most 0.25. As for IFGL, the figure is at most 0.25; as for HWQF, at most 0.25. The figure for KHKT is at most 0.25; for WCLH it is at most 0.25. As for NPQL, the figure is at most 0.25; as for APPH, at most 0.25; as for HQCF, at most 0.25. In the case of YEAQ, the enrichment ratio was at most 0.25. As for KNEF, the figure is at most 0.25; as for EMSI, at most 0.25; as for MHIT, at most 0.25.

For SINS, the enrichment ratio stood at 10.5.

In the case of DPIV, the enrichment ratio is at most 0.25. As for IRHW, the figure is at most 0.25; as for EAHS, at most 0.25. For YWMN, the enrichment ratio is at most 0.25. HKGD: the enrichment ratio was at most 0.25.

QDAM: the enrichment ratio was at most 0.25. In the case of MHIV, the enrichment ratio was at most 0.25. As to SCEA, the enrichment ratio was at most 0.25. As to SLQI, the enrichment ratio amounted to 5.02. The figure for NNIE is at most 0.25; for KDNV it is at most 0.25; for SMAH it is 6.85. Consider MYNT, for which the enrichment ratio is at most 0.25. For VDCI, the enrichment ratio was at most 0.25. FMMW: the enrichment ratio is at most 0.25. Regarding RMGC, the enrichment ratio was at most 0.25. The figure for MQWA is at most 0.25. As to TQFY, the enrichment ratio was determined as 2.58. Take PKRS: the enrichment ratio was 0.391. Consider VDPF, for which the enrichment ratio is at most 0.25. Consider TFCA, for which the enrichment ratio came out at 0.663.

PMAP: the enrichment ratio was at most 0.25. YKMC: the enrichment ratio was at most 0.25. Regarding WGAH, the enrichment ratio is at most 0.25. The figure for HWPF is at most 0.25; for GDPH it is at most 0.25; for MAMP it is at most 0.25.

Consider IIGE, for which the enrichment ratio is at most 0.25. On to QRLK, for which the enrichment ratio is at most 0.25. As to FLGL, the enrichment ratio was at most 0.25.

For LDLP, the enrichment ratio is at most 0.25. Consider IWFS, for which the enrichment ratio is at most 0.25.

With FILV, the enrichment ratio was 3.23.

Regarding SEMY, the enrichment ratio came to 5.04. The figure for KYYV is at most 0.25; for FNKF it is at most 0.25; for PIEI it is at most 0.25.

Consider TDNL, for which the enrichment ratio is at most 0.25.

Regarding RFEK, the enrichment ratio is at most 0.25. In the case of GGPV, the enrichment ratio is at most 0.25. For the variant KNLS, the enrichment ratio is at most 0.25. For MPRV, the enrichment ratio is at most 0.25. On to GPIK, for which the enrichment ratio was at most 0.25. Regarding WKLE, the enrichment ratio was at most 0.25. As for HQAN, the figure is at most 0.25. For the variant FGVS, the enrichment ratio is at most 0.25. Turning to TSGF, the enrichment ratio turned out to be 8.13. On to QKEA, for which the enrichment ratio was at most 0.25. On to GMFR, for which the enrichment ratio was at most 0.25. On to VFIC, for which the enrichment ratio was at most 0.25. Regarding GHTT, the enrichment ratio is at most 0.25. TCCA: the enrichment ratio stood at 6.15.

With YRGH, the enrichment ratio was at most 0.25. As for MIKF, the figure is at most 0.25; as for KTVV, at most 0.25. The figure for WPLK is at most 0.25; for VTNW it is at most 0.25.

Turning to TVTY, the enrichment ratio is at most 0.25. For the variant LVNM, the enrichment ratio was at most 0.25.

In the case of WWIF, the enrichment ratio was at most 0.25. As to IVLR, the enrichment ratio was at most 0.25. With LCDN, the enrichment ratio is at most 0.25. For the variant TTNS, the enrichment ratio is 3.5. Take YTYG: the enrichment ratio is at most 0.25.

As to NHEI, the enrichment ratio was at most 0.25. FNAF: the enrichment ratio is at most 0.25. DCKM: the enrichment ratio is at most 0.25.

For ECVG, the enrichment ratio is at most 0.25.
